# Experimental data as given in article PMC10668032.
# Some of the results follow. At the low end of the ranking the order means little.
# Target: SIX1 homeodomain (reference allele) (UniProt Q15475)
# Assay: universal protein binding microarray
# Settings: Universal all-10-mer PBM (8x60K, AMADID 030236), 300 nM GST-tagged protein, Alexa Fluor 488 anti-GST; buffer, salt, pH and temperature not stated; high values mean tight binding; most listed sequences are background and not binding sites; double strand, one strand shown
row,Sequence,binding signal
1,ACGCATAG,0.0335 E-score
2,AGCCTCTG,-0.118 E-score
3,ATACAAAA,0.111 E-score
4,ACTCTACG,-0.0959 E-score
5,CTTCAAAA,-0.151 E-score
6,GCGAGGCA,-0.116 E-score
7,CGTCTCAC,0.254 E-score
8,GATTTTAA,-0.167 E-score
9,AAATCACA,-0.235 E-score
10,CACCACGG,-0.0179 E-score
11,ATTTTTCG,-0.193 E-score
12,AATATCTC,0.274 E-score
13,ACCATTTA,-0.101 E-score
14,GGAAACAA,-0.094 E-score
15,AATCCCAA,-0.00318 E-score
16,AACCGAGA,0.162 E-score
17,AAGTGGAT,0.182 E-score
18,TAAAAATA,0.0228 E-score
19,AAGTTACC,-0.139 E-score
20,CCAGTCGA,0.0789 E-score
21,AAAGTTCA,-0.18 E-score
22,TTGCGAAA,-0.0667 E-score
23,ACCTAATA,0.2 E-score
24,AAAAAAAC,-0.327 E-score

row,Sequence,binding signal
1,ATAGCCTC,0.184 E-score
2,ACGCTAGG,-0.0657 E-score
3,CAGTACAG,-0.0151 E-score
4,CATCATAG,-0.0304 E-score
5,ACCCTCGC,-0.163 E-score
6,GGATAACA,0.237 E-score
7,CGTCTTGA,0.0536 E-score
8,ATTGGCTC,-0.0679 E-score
9,TCTGCTCA,0.00471 E-score
10,TCACAGGA,0.0301 E-score
11,CCGCTGCA,-0.232 E-score
12,GTCTGAAC,-0.0323 E-score
13,CACGTATG,0.144 E-score
14,CTTATTTA,-0.206 E-score
15,AGTGCCAC,-0.118 E-score
16,CCCGCAAC,-0.0417 E-score
17,CGTCGGAG,-0.0392 E-score
18,ATAGGCTA,0.0844 E-score
19,AATCGACT,-0.349 E-score
20,GGATCGAA,0.267 E-score
21,ACGTCATG,-0.175 E-score
22,ACAGAATC,-0.00969 E-score
23,AAGAACTG,-0.0923 E-score
24,AGATGCCA,0.0207 E-score

row,Sequence,binding signal
1,AGTTAATA,0.145 E-score
2,CTCGCTGC,-0.0302 E-score
3,TAACCGAA,-0.0917 E-score
4,TAAGCAAA,-0.236 E-score
5,AGGACTTA,-0.237 E-score
6,CGAAATCA,-0.215 E-score
7,CCCAACAA,-0.11 E-score
8,AACTGCCG,-0.111 E-score
9,AGGCACTG,-0.0522 E-score
10,CTTTTGCA,-0.0889 E-score
11,GAGTTAGA,-0.0114 E-score
12,AATAGTTG,-0.243 E-score
13,CGTAGAAA,-0.339 E-score
14,ACATTTAA,-0.118 E-score
15,CAGAATAA,-0.118 E-score
16,AGCTGACA,-0.13 E-score
17,CACGATGG,-0.0175 E-score
18,GTTCTGAA,-0.0595 E-score
19,CCGGGTTA,0.0696 E-score
20,CGGGCACC,0.108 E-score
21,ATTTGAAA,-0.11 E-score
22,GGAATCGA,-0.0144 E-score
23,AGGCCTTG,-0.236 E-score
24,CATCCAAA,-0.0916 E-score

row,Sequence,binding signal
1,GTACTACA,0.00829 E-score
2,CCGACCGC,-0.0178 E-score
3,ATTAACTC,-0.0116 E-score
4,AACAGTAG,-0.134 E-score
5,CCAAGCGC,-0.153 E-score
6,AATCACTA,-0.0367 E-score
7,ATCTCACC,0.335 E-score
8,ATCGCTAG,0.279 E-score
9,AAACATTA,-0.356 E-score
10,CTACCCCA,-0.00649 E-score
11,CTTTTTCC,-0.162 E-score
12,GAATCCAA,-0.0142 E-score
13,CCCAGGCG,0.0247 E-score
14,AGCCAAGC,-0.238 E-score
15,AGTCTTCA,-0.385 E-score
16,CACGGGCC,-0.142 E-score
17,CCGGGTAC,0.148 E-score
18,AGGTAGTA,0.0393 E-score
19,CTGGAGAA,-0.223 E-score
20,CAGCGTCG,-0.23 E-score
21,TAGTGGGA,0.0867 E-score
22,GTACAGAC,-0.23 E-score
